Source: PubChem BioAssay (NCATS)
Where “and” joins values, the source holds several entries; their conditions need not be identical. Equal values may be shown once. The shares of active, inactive and inconclusive entries below differ from those in the screen. Where the call is inconclusive, the potency comes from a doubtful curve fit. Calls of active or inactive are those of the source. The call rests on the fitted dose curve; in most records, active means well fitted curve in the direction sought with a large enough effect; inconclusive means small, poorly fitted or top-dose-only effect, or another doubt; inactive means no such curve, though single readings can be large; an effect the other way counts as inactive or inconclusive.

Tests used:
[1] = qHTS of pediatric cancer cell lines to identify multiple opportunities for drug repurposing: Primary screen for TC32 cells (AID 1347089); further: nearly all actives have a fitted effect of over 60% in size; on activity change, negative = cytotoxic: on the % scale 0 is the no-effect control and ±100 the full control effect
Outline: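 TC32 cells, 500-1,000/well in growth medium, compound-treated 48 h at 37 °C; viability from CellTiter-Glo luminescence. Primary screen: MIPE 11-point (0.78 nM–46 µM final), NPC 8-point (0.59 nM–46 µM final); confirmatory at 11-point dilutions.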

[2] = qHTS of pediatric cancer cell lines to identify multiple opportunities for drug repurposing: Primary screen for DAOY cells (AID 1347090); conditions: DAOY medulloblastoma viability, CellTiter-Glo luminescence, 48 h; activity change, negative = cytotoxic: at 46 µM (top of the series) unless noted; further: nearly all actives have a fitted effect of over 55% in size;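 on activity change, negative = cytotoxic: plate controls were DMSO for no effect and bortezomib for full effect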
Outline: (§1)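 Viability measured as metabolically active cells via CellTiter-Glo luminescence following 48 hours of compound exposure, 11-point dilutions in confirmatory testing. 500-1,000 cells/well plated 5 hours before dosing; controls were DMSO and 2.3 µM bortezomib.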

[3] = qHTS of pediatric cancer cell lines to identify multiple opportunities for drug repurposing: Primary screen for SJ-GBM2 cells (AID 1347091);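 on activity change, negative = cytotoxic: plate controls were DMSO neutral control for no effect and bortezomib for full effect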
Outline: as §1
Potency means the concentration at half of the fitted maximal effect; tags describe the fitted curve by direction and shape.

Row | SMILES | Potency [1] | Potency [2] | Potency [3] | activity change, negative = cytotoxic [2]
1 | COc1ccc(-c2cc(=O)c3c(O)cc(O)cc3o2)cc1O | inconclusive: 20.8 µM [cytotoxic, partial curve, poor fit] | inconclusive: 3.72 µM [cytotoxic, full curve] | inconclusive: 33.2 µM [cytotoxic, single point] | –
2 | COc1cccc(-c2ccc(NC(=O)C3=C(C(=O)O)CCC3)c(F)c2)c1 | inconclusive: 16.5 µM [cytotoxic, partial curve] | inconclusive: 3.72 µM [cytotoxic, full curve] | – | –
3 | CCCCCCCCCCCCOCCOCCOCCOCCOCCOCCOCCOCCOCCO | inconclusive: 29.7 µM [cytotoxic, partial curve, poor fit] | – | inconclusive: 16.8 µM [cytotoxic, partial curve] | –
4 | CN(C(Cc1ccc(OS(=O)(=O)c2cccc3cnccc23)cc1)C(=O)N1CCN(c2ccccc2)CC1)S(=O)(=O)c1cccc2cnccc12 (stereo not drawn) | inconclusive: 20.8 µM [cytotoxic, single point] | inconclusive: 18.7 µM [cytotoxic, partial curve] | inconclusive: 6.62 µM [cytotoxic, partial curve] | –
5 | CNCCCCOc1ccccc1Cc1ccccc1 | inactive | – | inconclusive: 26.6 µM [cytotoxic, single point] | –
6 | CN(C1CCc2c(c3ccccc3n2CC(=O)O)C1)S(=O)(=O)c1ccc(F)cc1 (stereo not drawn) | inconclusive: 16.5 µM [cytotoxic, partial curve, poor fit] | – | inconclusive: 16.6 µM [cytotoxic, partial curve] | –
7 | Cc1ccc(F)c(NC(=O)Nc2ccc(-c3cccc4[nH]nc(N)c34)cc2)c1 | inconclusive: 37 µM [cytotoxic, partial curve, poor fit] | active: 23.5 µM | active: 23.5 µM | –
8 | CC(=NNC(=S)N1CCC1)c1ccccn1 | active: 0.0415 µM | inconclusive: 0.0012 µM [cytotoxic, full curve, poor fit] | active: 0.0209 µM | –
9 | C=C1C(=O)[C@@]23C(CC[C@@H]1[C@H]2O)[C@@]12CO[C@]3(O)[C@@H](O)[C@@H]1C(C)(C)CC[C@@H]2O (stereo partly drawn) | active: 16.5 µM | – | active: 8.33 µM | –
10 | c1ccc2c(Cc3c[nH]c4ccccc34)c[nH]c2c1 | inconclusive: 14.7 µM [cytotoxic, partial curve, poor fit] | – | inconclusive: 26.4 µM [cytotoxic, single point] | –
11 | CC(C)[C@H](CO)Nc1nc(Nc2ccc(C(=O)O)c(Cl)c2)c2ncn(C(C)C)c2n1 | inconclusive: 7.39 µM [cytotoxic, partial curve] | – | inconclusive: 26.4 µM [cytotoxic, single point] | inconclusive: -39.7% [cytotoxic]
12 | Nc1ccc(O)c([N+](=O)[O-])c1 | inconclusive: 38.2 µM [cytotoxic, partial curve, poor fit] | inactive | inactive | –
13 | Nc1nc2ccc([N+](=O)[O-])cc2s1 | – | inactive | – | –
14 | CC[C@@]1(O)C[C@H](O[C@H]2C[C@H](N(C)C)[C@H](O[C@H]3C[C@H](O)[C@H](O[C@H]4CCC(=O)[C@H](C)O4)[C@H](C)O3)[C@H](C)O2)c2c(cc3c(c2O)C(=O)c2c(O)cccc2C3=O)[C@@H]1C(=O)OC | inconclusive: 5.23 µM [cytotoxic, partial curve, poor fit] | inconclusive: 14.8 µM [cytotoxic, partial curve] | – | –
15 | CC(C)Oc1ccc2c(=O)c(-c3ccccc3)coc2c1 | – | inconclusive: 2.66 µM [cytotoxic, full curve, poor fit] and inconclusive: 7.43 µM [cytotoxic, full curve, poor fit] | – | –
16 | Cc1nc2ccccc2n1Cc1ccc(Cl)cc1 | inconclusive: 9.38 µM [cytotoxic, partial curve] | active: 5.31 µM | – | –
17 | CS(=O)(=O)c1ccc(-c2cn3ccccc3n2)cc1 | – | inconclusive: 13.3 µM [cytotoxic, partial curve] | inconclusive: 29.9 µM [cytotoxic, single point] | –
18 | O=c1c(O)c(-c2ccc(O)cc2)oc2cc(O)cc(O)c12 | – | inconclusive: 23.5 µM [cytotoxic, partial curve] | active: 14.8 µM | –
19 | CCc1nn(CCCN2CCN(c3cccc(Cl)c3)CC2)c(=O)n1CCOc1ccccc1 | – | inconclusive: 26.6 µM [cytotoxic, single point] | inconclusive: 18.8 µM [cytotoxic, partial curve] | –
20 | C[C@](N)(Cc1ccc(O)cc1)C(=O)O | – | – | – | inconclusive: -32.9% [at 4.84 µM]
